Experimental data: PubChem BioAssay AID686970 (National Center for Advancing Translational Sciences (NCATS), 2013)
Among all 360,000 compounds or so, about 6,000 (1.7%) were called active. Inconclusive results, whose numbers are uncertain, are shown with a selection of clear calls. Calls come from the whole dose curve; as a rule, active = well fitted cell-killing curve with a large enough effect; inconclusive = small, poorly fitted or top-dose-only effect, or effect the other way; inactive = flat fitted curve, though single readings scatter. Potencies of inconclusive entries are left out as doubtful fits.

Test: qHTS for induction of synthetic lethality in tumor cells producing 2HG: qHTS for the HT-1080-NT fibrosarcoma cell line;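 note: NT is the 2HG producing partner of a matched IDH1 knockdown line; nearly all actives have a fitted effect of over 55% in size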;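 for activity, negative = less viability: 0% = DMSO-treated cells and -100% = media-only wells without cells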
Conditions: HT-1080-NT fibrosarcoma viability, CellTiter-Glo ATP luminescence, 48 h; activity, negative = less viability: at 46.1 µM (top of the series) unless noted
Summary of the method: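 HT-1080-NT; 750 cells/well; 5% FBS RPMI; 48 h compound, 37 degrees C; CellTiter-Glo luminescence; curve fitting and curve-class assignment.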
Potency is the fitted concentration of half-maximal effect; tags give direction and shape of the fitted curve.

Compound | Potency | activity, negative = less viability
Cc1ccc(NC(=O)c2ccccc2NS(=O)(=O)c2ccc(F)cc2)cc1S(=O)(=O)N1CCCCC1 | inconclusive [cytotoxic, partial curve, poor fit] | –
Cc1ccc(Nc2nc(-c3ccc(O)c(O)c3)cs2)nc1 | inconclusive [cytotoxic, partial curve, poor fit] | –
CCOCc1nnc(NC(=O)CS(=O)(=O)c2ccc(C)cc2)s1 | inactive | –
CCCCC(O)(C(NC=O)C(=O)OC)C(F)(F)F (configuration not stated) | inconclusive [rising, single point] | –
CCN(CC1CCCN(CCc2cccc(F)c2)C1)C(=O)c1cc2ccccc2o1 (configuration not stated) | inconclusive [cytotoxic, partial curve] | –
Cc1cccc(C(=O)NCC(=O)OCc2cc(=O)n3ccsc3n2)c1 | inactive | –
Cc1nc(SCC(=O)N2CCNC2=O)c2ccccc2n1 | inconclusive [cytotoxic, partial curve] | –
Cc1ccc(Cl)cc1NC(=S)N(CCN(C)C)Cc1cccs1 | – | inconclusive: -32.2% [cytotoxic]
O=C(Cn1ncc(Cl)c(Cl)c1=O)NC(=O)NC1CCCCC1 | inconclusive [cytotoxic, partial curve] | –
COc1cc(C(O)c2nc(-c3ccc4ccccc4c3)cs2)ccc1F (configuration not stated) | active: 23.1 µM | –
Cc1nc2ccc(NC(=O)c3cc(S(=O)(=O)N(C)c4ccccc4)ccc3Cl)cc2s1 | inconclusive [cytotoxic, partial curve, poor fit] | –
COC(=O)c1ccc2nc(-c3ccc(F)cc3)c(Cc3ccccc3OC)n2c1 | inactive | –
COc1cccc(/C(O)=C/c2nc3ccc(C(=O)NCCc4cccc(C)c4)cc3[nH]c2=O)c1 | inconclusive [cytotoxic, partial curve] | –
O=C(NCc1ccccn1)c1cc(-c2ccc(-c3ccccc3)cc2)nc2ccccc12 | inconclusive [cytotoxic, partial curve] | –
O=C1CC(c2ccc3ccccc3c2)NN1 (configuration not stated) | inactive | –
COc1cccc(OCCCN2CCN(S(=O)(=O)c3ccc(NC(C)=O)cc3)CC2)c1 | inconclusive [cytotoxic, partial curve] | –
CC(C)(C)c1ccc(CN2C(=O)c3ccccc3S2(=O)=O)cc1 | inconclusive [cytotoxic, single point] | –
Cc1ccc(-c2nc(=O)[nH]c3ccc(Br)cc23)cc1 | inconclusive [cytotoxic, single point] | –
COC(=O)[C@@]1(Cc2ccc(F)cc2)[C@H]2c3cc(C(=O)N4CCCC4)n(Cc4ccc(C)o4)c3C[C@H]2CN1C(=O)c1ccccc1 | inconclusive [cytotoxic, single point] | –
COc1ccc(C2C(C#N)=C(C)NC(C)=C2C#N)c(OC)c1 | inactive | –
NC(Cc1ccccc1)c1csc(Nc2cc(Oc3ccccc3)ncn2)n1 (configuration not stated) | inconclusive [cytotoxic, single point] | –

Compound | Potency | activity, negative = less viability
CCOC(=O)c1[nH]c(C)c(C(=O)Nc2cc(Cl)ccc2C)c1C | active: 0.316 µM | –
O=C(/C=C/c1ccco1)NC(=S)Nc1ccc(N2CCOCC2)c(Cl)c1 | – | inconclusive: -25.4% [cytotoxic]
Cc1[nH]nc2nc(SCC(=O)NCCC3=CCCCC3)n(-c3ccc(Br)cc3)c(=N)c12 | active: 20.6 µM | –
C[C@H]1CN([C@@H](C)CO)C(=O)c2cccc(NC(=O)c3nc4ccccc4s3)c2O[C@H]1CN(C)C(=O)Nc1ccc(F)cc1 | inconclusive [cytotoxic, single point] | –
O=C(Cn1cc(/C=C\[N+](=O)[O-])c2ccccc21)Nc1ccccc1 | inconclusive [cytotoxic, partial curve, poor fit] | –
CN(C)C(=O)COC(=O)c1ccccc1OCC(=O)Nc1ccc(SC(F)F)cc1 | – | inconclusive: 32.9%
COc1ccc(-c2cc(C(F)(F)F)nc(S(=O)(=O)CCCC(=O)Nc3cc(C)on3)n2)cc1OC | active: 16.4 µM | –
c1ccc2c(c1)OCC(CNc1ncnc3sccc13)O2 (configuration not stated) | active: 0.731 µM | –
CCc1nc2ccc(C(=O)N3CCN(c4ccccc4)CC3)cn2c1N(C)CCC(C)C | inconclusive [cytotoxic, single point] | –
CN(C)c1ccc(-c2cc(NC=O)c3ncc(-c4ccc(F)c(Cl)c4)n3c2)cc1 | inconclusive [cytotoxic, single point] | –
O=C1/C(=C\c2cccnc2)Sc2ccccc21 | inconclusive [cytotoxic, single point] | –
S=c1[nH]nc(-c2ccc3ccccc3n2)n1-c1cc(Cl)cc(Cl)c1 | inactive | –
COc1ccc(/C=C2\CCc3c2nc2ccccc2c3C(=O)O)cc1OC | inconclusive [rising, single point] | –
COc1ccc(C(=O)NC2CCN(C(=O)Nc3ccc(F)cc3)CC2)cc1 | inconclusive [rising, partial curve, poor fit] | –
COc1ccc(/C=C/C(=O)c2ccccc2)cc1COc1ccccc1F | inconclusive [cytotoxic, single point] | –
CC(=O)Nc1ccc(NC(=O)CSc2ncc(C(=O)Nc3ccccc3)c(=O)n2C)cc1 | inconclusive [cytotoxic, partial curve] | –
CCSC(=S)c1c(C)[nH]n(-c2ccccc2)c1=O | inconclusive [cytotoxic, single point] | –
COc1cccc(Cn2cnc(-c3ccccc3OC)c2-c2cc(C)cc(C)c2)c1 | inconclusive [cytotoxic, single point] | –
COc1ccccc1N1CCN(C(=O)c2cc3cc(F)ccc3[nH]2)CC1 | inconclusive [cytotoxic, partial curve] | –
C=CCn1cnc2c(c1=O)c1nc3ccccc3nc1n2/N=C/c1cc(OC)c(OC)c(OC)c1 | inconclusive [cytotoxic, single point] | –
CCOC(=O)c1c(-c2ccc(C)o2)csc1NC(=O)CN(C)CC(=O)Nc1ccc(C)cc1 | inconclusive [cytotoxic, single point] | –
